From publication PMC4336329 (PLoS ONE, 2015)
About 14,000 (4.5%) of roughly 310,000 compounds showed an effect of 50% or more. The effect is printed as a negative number. The list shows a part of the results.

target: human ether-à-go-go-related gene (hERG) potassium channel (human, UniProt Q12809); experiment: primary screen, population patch clamp on CHO cells stably expressing hERG
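Note: peak tail current of the secondary pulse compared with the same well before compound.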

Sequence of human ether-à-go-go-related gene (hERG) potassium channel (Q12809 whole entry, looked up): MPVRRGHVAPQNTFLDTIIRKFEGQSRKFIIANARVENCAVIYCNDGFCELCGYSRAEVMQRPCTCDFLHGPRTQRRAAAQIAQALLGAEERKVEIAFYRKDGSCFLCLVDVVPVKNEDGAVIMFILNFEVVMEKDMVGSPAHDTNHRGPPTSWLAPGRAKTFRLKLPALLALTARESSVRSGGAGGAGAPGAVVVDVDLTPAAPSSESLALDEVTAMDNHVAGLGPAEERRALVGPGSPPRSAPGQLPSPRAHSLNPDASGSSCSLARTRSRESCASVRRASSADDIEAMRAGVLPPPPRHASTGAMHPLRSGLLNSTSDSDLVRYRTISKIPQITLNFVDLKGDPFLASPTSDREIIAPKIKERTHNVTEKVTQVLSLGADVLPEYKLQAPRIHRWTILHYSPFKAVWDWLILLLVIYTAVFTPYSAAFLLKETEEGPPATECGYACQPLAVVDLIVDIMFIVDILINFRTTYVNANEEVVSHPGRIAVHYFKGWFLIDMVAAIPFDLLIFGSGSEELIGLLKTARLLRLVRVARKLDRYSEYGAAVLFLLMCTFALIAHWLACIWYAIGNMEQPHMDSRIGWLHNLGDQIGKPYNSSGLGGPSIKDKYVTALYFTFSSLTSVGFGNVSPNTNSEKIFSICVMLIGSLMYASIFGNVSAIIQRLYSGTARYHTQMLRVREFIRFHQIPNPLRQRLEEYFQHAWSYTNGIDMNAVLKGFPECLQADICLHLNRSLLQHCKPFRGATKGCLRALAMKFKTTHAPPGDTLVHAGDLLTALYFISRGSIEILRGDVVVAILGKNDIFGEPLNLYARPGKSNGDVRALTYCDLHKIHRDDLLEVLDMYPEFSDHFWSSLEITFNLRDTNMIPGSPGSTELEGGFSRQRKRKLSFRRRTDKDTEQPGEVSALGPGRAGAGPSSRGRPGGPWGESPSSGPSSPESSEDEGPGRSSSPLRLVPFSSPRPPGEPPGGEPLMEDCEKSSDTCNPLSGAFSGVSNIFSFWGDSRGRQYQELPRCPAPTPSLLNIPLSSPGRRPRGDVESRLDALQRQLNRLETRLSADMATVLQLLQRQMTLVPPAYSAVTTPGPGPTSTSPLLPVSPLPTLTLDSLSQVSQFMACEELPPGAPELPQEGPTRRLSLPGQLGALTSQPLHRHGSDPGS

First: CCCCNC(=S)Nc1ccc(Oc2ccccc2)cc1
Second: CCc1ccccc1NC(=O)C(Cc1ccccc1)c1nn[nH]n1 (centres unmarked)
The “hERG current change (%, negative = inhibition) at 10uM” value of the first is lower: 1.82% for the first, 21.1% for the second.

Compared with `COCCn1c(SCC(=O)N2CCCCCC2)nnc1-c1ccco1`, `COCCn1nnnc1C(C(C)C)N1CCN(C(=O)c2ccco2)CC1.Cl` (centres unmarked) is lower in “hERG current change (%, negative = inhibition) at 10uM” value: 18.2% for the first, -1.29% for the second.

Compared with `Cc1ccc(-n2c(SCc3ccc(C#N)cc3)nnc2-c2ccccn2)cc1`, `Cc1ccc(NC(=O)CSc2nnc(-c3n[nH]c4ccccc34)n2-c2ccccc2)c(C)c1` is higher in “hERG current change (%, negative = inhibition) at 10uM” value: -48.7% for the first, 17.1% for the second.

First: CN(C)S(=O)(=O)c1cccn1-c1ncc(C(F)(F)F)cc1Cl
Second: CCN(CC)S(=O)(=O)c1ccc2oc(C(=O)N3CCc4ccccc4C3)c(C)c2c1
The “hERG current change (%, negative = inhibition) at 10uM” value of the first is higher: -10.4% for the first, -21.8% for the second.

First: COC(=O)Nc1c(-c2ccccc2)nc2ccccn12
Second: NC(=O)c1ccccc1N=Cc1ccccn1
The “hERG current change (%, negative = inhibition) at 10uM” value of the first is higher: 0.337% for the first, -5.25% for the second.

First: Cc1nc(SCC(=O)O)c(C#N)c(C)c1CC(=O)c1ccccc1
Second: COC(=O)c1scc(C)c1NC(=O)C(Cl)c1ccccc1 (centres unmarked)
The “hERG current change (%, negative = inhibition) at 10uM” value of the first is higher: 21.3% for the first, 8.83% for the second.

Going from `NC(=S)N/N=C/c1ccccc1O` to `COc1ccc(CCNC(N)=S)cc1OC`, the “hERG current change (%, negative = inhibition) at 10uM” value falls from 14.5% to 13.9%.

First: CCOC(=O)N1C2=NC(C(=O)OC)=C(C(=O)OC)[C@@H]3N(C)c4ccc(OC)cc4[C@]23C[C@H]1C(=O)OC
Second: CCOC(=O)C(C(=O)OCC)C(=O)c1cc(OC)c(OC)c(OC)c1
The “hERG current change (%, negative = inhibition) at 10uM” value of the first is higher: 6.52% for the first, -16.4% for the second.

Going from `CC(C)N1CCc2c(sc(NC(=O)c3ccc(S(=O)(=O)N4CCc5ccccc54)cc3)c2C(N)=O)C1.Cl` to `CC(=O)c1ccc(N2CCN(c3ccc4cc(S(=O)(=O)N5CCC(C)CC5)ccc4n3)CC2)cc1`, the “hERG current change (%, negative = inhibition) at 10uM” value rises from -27.3% to 5.23%.

Going from `C/C(=N\N1CCN(C2c3ccccc3-c3ccccc32)CC1)c1cccnc1` to `O=C(c1ccccn1)N(Cc1cc2ccccc2[nH]c1=O)C1CCCCC1`, the “hERG current change (%, negative = inhibition) at 10uM” value falls from -2.47% to -2.49%.

Compared with `O=C(O)C1CCCN1c1ncnc2ccccc12` (centres unmarked), `Cc1cc(C)cc(NC(=O)C2CCCN2C(=O)Oc2ccccc2)c1` (centres unmarked) is lower in “hERG current change (%, negative = inhibition) at 10uM” value: 9.37% for the first, -10.9% for the second.

Going from `Cc1ccc(N/C(N)=N/c2nc(CSc3nnc(N)s3)cc(=O)[nH]2)cc1` to `Cc1ccc2nc(SCC(=O)Nc3cc(C(C)(C)C)nn3-c3ccccc3)[nH]c2c1`, the “hERG current change (%, negative = inhibition) at 10uM” value falls from 11.5% to 3.37%.

Compared with `CC(C)C(NS(=O)(=O)c1ccc2c(c1)Cc1cc(S(=O)(=O)NC(C(=O)O)C(C)C)ccc1-2)C(=O)O` (centres unmarked), `COc1ccc(NS(=O)(=O)c2ccc(N)c(C(=O)O)c2)cc1` is lower in “hERG current change (%, negative = inhibition) at 10uM” value: 15.1% for the first, 11.9% for the second.

First: CCCCN(Cc1cc2cc(OC)ccc2[nH]c1=O)C(=O)c1ccco1
Second: COc1ccccc1N1C[C@@H]2C[C@@H](c3ccco3)N3CCC[C@@]23C1=O
The “hERG current change (%, negative = inhibition) at 10uM” value of the first is lower: -22.4% for the first, 11.4% for the second.

Going from `Cc1ccc(C(=O)COC(=O)c2ccc(-c3cnc4ccccc4n3)cc2)cc1C` to `Cc1ccc(N2C(=O)[C@@H]3[C@H](C2=O)C2c4ccccc4C=NN2[C@@H]3C(=O)c2ccc(Cl)cc2)cc1` (some centres unmarked), the “hERG current change (%, negative = inhibition) at 10uM” value rises from -1.51% to 9.94%.

First: COc1cc(C(=O)OC(C)CN2CCOCC2)cc(OC)c1OC (centres unmarked)
Second: COc1ccccc1N1CCN(CCC(=O)Nc2cccc(Cl)c2)CC1.Cl
The “hERG current change (%, negative = inhibition) at 10uM” value of the first is higher: 8.78% for the first, -62.8% for the second.

First: O=c1c(-c2ccc(O)cc2)coc2cc(O)cc(O)c12
Second: CCOC(=O)c1oc2cccc(O)c2c1C
The “hERG current change (%, negative = inhibition) at 10uM” value of the first is higher: 12.8% for the first, -7.22% for the second.

First: COC(=O)c1scc(C)c1NC(=O)c1cccc(C#N)c1
Second: Cc1csc(NC(=O)c2ccc(OCC3CCCO3)cc2)n1 (centres unmarked)
The “hERG current change (%, negative = inhibition) at 10uM” value of the first is higher: 11.2% for the first, 9.55% for the second.

Going from `CCC(/C=N/NC(=O)CCCCC(=O)N/N=C/C(CC)CC)CC` to `Cc1cccc(OCc2nnc(SCC(=O)Nc3sc(C)c(C)c3C#N)n2C)c1`, the “hERG current change (%, negative = inhibition) at 10uM” value rises from 1.36% to 18.9%.

Going from `O=C(Nc1ccc2c(c1)oc1ccccc12)c1ccncc1` to `C=CCN(c1ccc(C(=O)Nc2ccc(C)c(C)c2)cc1)S(C)(=O)=O`, the “hERG current change (%, negative = inhibition) at 10uM” value falls from 5.01% to -7.62%.

Compared with `CSCCC(NS(=O)(=O)c1ccc2c(c1)oc(=O)n2C)C(=O)NC1CCN(Cc2ccccc2)CC1` (centres unmarked), `CC1CCN(CCCCOc2ccc(C(=O)c3ccccc3)cc2)CC1.O=C(O)C(=O)O` is lower in “hERG current change (%, negative = inhibition) at 10uM” value: -7.44% for the first, -77% for the second.

First: O=C(CCC1CCCN(C(=O)CCCc2ccccc2)C1)N1CCN(c2ccccn2)CC1 (centres unmarked)
Second: O=S(=O)(Nc1ccc(N2CCCCC2)cc1)c1cccs1
The “hERG current change (%, negative = inhibition) at 10uM” value of the first is lower: -35.2% for the first, -6.8% for the second.
